# Experimental data as given in article PMC4336329 (PLoS ONE, 2015).
# About 2,200 (0.71%) of roughly 310,000 compounds showed an effect of 50% or more. The effect is printed as a negative number. The list shows a part of the results.
# Molecular target: human ether-à-go-go-related gene (hERG) potassium channel (human, UniProt Q12809)
# Test: primary screen, population patch clamp on CHO cells stably expressing hERG
# Chain of human ether-à-go-go-related gene (hERG) potassium channel (Q12809 whole entry, looked up): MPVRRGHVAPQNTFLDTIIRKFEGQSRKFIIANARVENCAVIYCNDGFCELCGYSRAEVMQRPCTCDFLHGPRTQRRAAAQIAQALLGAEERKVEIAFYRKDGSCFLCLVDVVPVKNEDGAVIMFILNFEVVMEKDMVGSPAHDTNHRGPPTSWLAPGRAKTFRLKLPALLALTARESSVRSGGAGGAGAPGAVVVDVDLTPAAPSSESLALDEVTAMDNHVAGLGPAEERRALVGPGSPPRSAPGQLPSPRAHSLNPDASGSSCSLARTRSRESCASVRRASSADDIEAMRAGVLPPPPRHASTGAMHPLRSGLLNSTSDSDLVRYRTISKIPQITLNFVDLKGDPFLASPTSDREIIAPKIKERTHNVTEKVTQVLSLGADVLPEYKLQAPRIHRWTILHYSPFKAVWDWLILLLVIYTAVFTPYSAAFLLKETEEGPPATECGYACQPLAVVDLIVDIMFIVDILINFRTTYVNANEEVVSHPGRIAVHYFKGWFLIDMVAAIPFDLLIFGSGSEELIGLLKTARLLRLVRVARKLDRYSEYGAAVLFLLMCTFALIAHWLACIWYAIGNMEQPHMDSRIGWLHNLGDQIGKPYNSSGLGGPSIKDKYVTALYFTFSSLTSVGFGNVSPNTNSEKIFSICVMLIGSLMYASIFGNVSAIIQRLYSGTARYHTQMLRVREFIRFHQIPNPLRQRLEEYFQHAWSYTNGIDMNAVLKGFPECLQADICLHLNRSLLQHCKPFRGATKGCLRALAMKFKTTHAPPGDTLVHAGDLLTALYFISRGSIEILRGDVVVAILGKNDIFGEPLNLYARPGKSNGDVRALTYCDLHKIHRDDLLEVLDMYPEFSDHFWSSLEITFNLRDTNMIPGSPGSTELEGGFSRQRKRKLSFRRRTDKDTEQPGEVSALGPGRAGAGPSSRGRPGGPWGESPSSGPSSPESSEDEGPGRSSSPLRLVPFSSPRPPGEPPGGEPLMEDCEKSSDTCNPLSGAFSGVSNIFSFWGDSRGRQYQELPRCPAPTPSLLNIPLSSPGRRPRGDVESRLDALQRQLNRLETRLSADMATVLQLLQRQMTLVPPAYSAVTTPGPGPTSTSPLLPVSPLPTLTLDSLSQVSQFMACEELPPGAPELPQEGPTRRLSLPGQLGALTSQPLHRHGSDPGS
row,Structure (SMILES),"hERG current change (%, negative = inhibition) at 1uM [%]"
1,Cc1ccnc(NC(=O)CCNC(=O)c2ccc(Cl)cc2)c1,19.4
2,CCC1(CC)Cc2ccccc2C(C2=C(O)CC(C)(C)CC2=O)=N1,15.6
3,CCOC(=O)NCc1ccc(CNC(=O)OCC)cc1,12.4
4,COc1cccc(Oc2c(C)oc3cc(OC(=O)N(C)C)ccc3c2=O)c1,-3.35
5,CN1C(=O)N(C)C2(c3ccccc3)N(C(C)(C)C)C(=O)NC12c1ccccc1 (centres unmarked),3.87
6,COC(=O)c1sc2ncccc2c1OCc1c(Cl)cccc1Cl,21.5
7,COc1ccc(N=Nc2ccc(CO)cc2)cc1,13.4
8,CC(C)(C)C(=O)Nc1nnc(SCC(=O)NC2CCCC2)s1,15
9,COc1cc(C(=S)N2CCOCC2)ccc1OS(=O)(=O)c1ccc(NC(C)=O)cc1,1.05
10,O=C(CN(Cc1ccco1)Cc1ccco1)Nc1cc(S(=O)(=O)N2CCCCC2)ccc1Cl,-15.4
11,O=C(NC1CC1)C1CCN(C2CCN(C(=O)/C=C/c3ccc(F)cc3)CC2)CC1,-19.9
12,Cc1ccc(N(Cc2cc(=O)[nH]c3ccccc23)C(=O)c2ccco2)cc1,-6.79
13,Cc1cc(OC(C)C(=O)NCC2CCC(C(=O)O)CC2)c2c(C)cc(=O)oc2c1 (centres unmarked),16.7
14,CC1(C)NC(=O)N(CCOCCOc2cccc(Oc3ccccc3)c2)C1=O,0.0586
15,O=[N+]([O-])c1ccc(S(=O)(=O)CC(CN2CCOCC2)N2CCOCC2)cc1 (centres unmarked),10.9
16,Cc1ccc(Sc2ccc(S(=O)(=O)Nc3ccc(CC(=O)O)cc3)cc2)cc1C,9.99
17,Cc1ccccc1NC(=O)c1ccc2nc(N3CCOCC3)sc2c1,-5.71
18,O=C(c1cccc(C(F)(F)F)c1)C1CCCN(C(=O)CCc2cnccn2)C1 (centres unmarked),-0.36
19,CN1CCN(C(=O)Cn2ncc3c([nH]c4ccccc43)c2=O)CC1,-10.2
20,FC(F)Oc1ccc(-n2cc(-c3ccccc3)[n+]3c2CCCCC3)cc1.[Br-],2.48
21,O=C(O)/C=C/c1cccc(NC(=O)Nc2ccc([N+](=O)[O-])cc2)c1,12.3
22,CCCn1c(-c2ccc(OC)cc2)nc2nc3ccccc3nc21,7.49

row,Structure (SMILES),"hERG current change (%, negative = inhibition) at 1uM [%]"
1,Cc1csc(SCC(=O)NCCc2ccc(Cl)cc2Cl)n1,-2.65
2,CCN(CC(=O)NCc1cccs1)C(=O)/C=C/c1cccc(Br)c1,-42.3
3,CN(C)CCCN(C(=O)COc1ccc(Cl)cc1)c1nc2cc3c(cc2s1)OCCO3.Cl,-4.94
4,COc1ccccc1/C=C(\NC(=O)c1ccccc1)C(=O)NCc1ccco1,17.1
5,COc1ccc2c(c1)C1(Nc3ccccc3C(=O)N1c1ccccc1)C(=O)N2 (centres unmarked),-0.876
6,Cc1cc(=O)nc2c3ccccc3n(CC(=O)NCCCN3CCCC3=O)n12,10.4
7,O=C(NCc1nc(-c2ccc(Cl)cc2)no1)c1ccc2c(c1)OCO2,9.62
8,Cc1ccc(Nc2nc(N)nc(CCl)n2)c(C)c1,16.4
9,Cn1c(=O)c2c(nc(NCCNC(=O)c3ccco3)n2Cc2ccc(Cl)cc2Cl)n(C)c1=O,16.3
10,Cc1cc(=O)oc2cc(OC(C(=O)O)c3ccccc3)ccc12 (centres unmarked),19.4
11,NC(=[NH2+])SCc1nc2ccccc2c(=O)n1-c1ccccc1.[Br-],6.23
12,COc1ccc(C2SCC(=O)N2CCc2ccc(OC)c(OC)c2)cc1 (centres unmarked),-1.68
13,O=C(CSc1nc(NS(=O)(=O)c2ccccc2)cc(=O)[nH]1)Nc1ccccc1C(F)(F)F,13.4
14,O=C(CCC(=O)N1CCN(S(=O)(=O)c2ccccc2)CC1)NC1CCCc2ccccc21 (centres unmarked),5.41
15,CCOC(=O)C1(CCc2ccccc2)CCN(C(=O)[C@@H]2C[C@@H](C)NC(=S)N2)CC1,6.48
16,O=C(CCNC(=O)c1ccco1)NC(Cc1c[nH]c2ccccc12)C(=O)O (centres unmarked),10.7
17,Cc1ccc(S(=O)(=O)NCCSc2ncccn2)cc1,26
18,COc1cc(C(=O)Oc2cccnc2)cc(OC)c1OC.Cl,14.7
19,O=C(O)C(O)c1ccccc1 (centres unmarked),4.82
20,Cc1cc(C(=O)COc2ccccc2C#N)c(C)n1C1CC1,15.1
21,COc1ccc(CCNC(=O)CSc2nc(O)cc(=O)[nH]2)cc1OC,12.6
22,CCN1C(=O)/C(=C\c2cn(CCC#N)nc2-c2ccc(F)cc2)SC1=S,3.28
